Assay results: the RNAGym collection of RNA variant scans (doi:10.1093/nar/gkz1192)
The source gives no read counts; variants with many changes may rest on few reads.

B1: CPEB3 Ribozyme (parent)
chain: UAACAGGGGGCCACAGCAGAAGCGUUCACGUCGCAGCCCCUGUCAGAUUCUGGUGAAUCUGCGAAUUCUGCUGUAUAUCUC

Variants of: B1
Assay: self-cleavage, relative activity (ratio to wild type); higher = more cleavage; in vitro, sequencing
In short: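 For each CPEB3 ribozyme variant, relative activity is its cleaved/total read fraction divided by the unmutated ribozyme's. Barcoded error-prone PCR libraries were transcribed by T7 RNA polymerase (5 hours, 37°C) and held in DNase I for 15 min before an EDTA stop, with cleavage occurring throughout. Template-switching reverse transcription and Illumina sequencing were used to read the RNAs. A 5-read minimum applied, and results are the mean of three batches.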
UAACCGGGGGCCACAGCAGAGGCGUUCACGUCGCAGCCCCUGUCAGGUCCUGGUGAAUCUGCGAAUUCUGCUGUAUAUCUC [A5C A21G A47G U49C] showed a self-cleavage of 0.6.
In the case of UAAUAGGGGGCCACAGCAGAAGCGUUCACGUCGCAGCCCCGGUCAGAUUCUGGUGAAUCUGCGAAUUCUGCCGUAUAUCUC [C4U U41G U72C], the self-cleavage is reported as 0.17.
Variant UAACCGGGGGCCACAGCGGAAGCGUUCACGUCGCAGCCCCUGUCAGAUUCUGGUGAAUCUGCGAAUUCUGCUGUAUUUCUC [A5C A18G A77U] has a self-cleavage of 0.64.
UAACCGGGGGCCACGGCAGAAGCGUUCACGUCGCAGCCCCUGUCAGAUUCUGGUGAAUCUGCGAAUUCUGCUGUGUAUCUC [A5C A15G A75G] showed a self-cleavage of 0.66.
For UAAUAGGGGGCCACAGCAGAAGCGUUCACGUCGCAGCCCCUGUCAGAUUCUGGCGAGUCCGCGAAUUCUGCUGUAUAUCUC [C4U U54C A57G U60C], the self-cleavage was 0.25.
Variant UAACCGGGGGCCACGGCAGAUGCGUCCACGUCGCAGCCCCUGUCAGAUACUGGUGAAUCUGCGAAUUCUGCUGUAUAUCUC [A5C A15G A21U U26C U49A] has a self-cleavage of 0.09.
Work on UAACCGGGGGCCACUGCAGAAGCGUUCACGUCGCAGCCCCUGACAGAUUCUGGCGAAUCUGCGAAUUCUGCUGUAUAUCUC [A5C A15U U43A U54C] yielded a self-cleavage of 0.94.
With UAAUAGGGGGCCACAGCAGAAGCGUUCACGUCGCAGCCCCCGCCAGAUUCUGGUGAAUCGGCGUAUUCUGCUGUAUAUCUC [C4U U41C U43C U60G A64U] the self-cleavage was 0.23.
Work on UAACCGGGGGCCACAGCAGGAGCGUUCACGUCCCAGCCCAUGUCAGAUUCUGGUGAAUCUGCGAGUUCCGCUGUAUAUCUC [A5C A20G G33C C40A A65G U69C] yielded a self-cleavage of 0.06.
UAACCGGGGGCCGCAGCAGAAGCGUUCACGCCGCAGCCCCUGUCAGAUUCUGGUGAAUCUGCGAAUUCUGCUGUAUAUCUC [A5C A13G U31C] showed a self-cleavage of 0.46.
UAACCGGGGGCCUCAGCAGAAGCGUUCACGCCGCAGCCCCUGUCAGAUUCUGGUGAAUCUGCGAAUUCUGCCGUAUGUCUC [A5C A13U U31C U72C A77G] gave a self-cleavage of 0.53.
In the case of UAACCGGGGGCCACUGCAGGGGCGUUCACGUCGCAGCCCCUGUCAGACUCUGGUGUAUCUGCGAAUUCUGCUGUAUAUCUC [A5C A15U A20G A21G U48C A56U], the self-cleavage is reported as 0.09.
Variant UAAUAGGGGGCCACAGCAGAAGCGUUCACGUCGCAGCCCCUGUCAGAUUCAGGUGAGUCUGCGAAUUCUGCUGUAUAUCUC [C4U U51A A57G] has a self-cleavage of 0.56.
For UAAUAGGGGGCCACAGCAGAAGCGUUCACGUCGCAGCCCCUGUCAGAUUCUGGUGAAUCUGCGAAUUCUGCUGAGUAUCUC [C4U U74A A75G], the self-cleavage was 1.32.
For UAACCGGGGGCCACAGCUGCAGCGUUCACGUCGCAGCCCCUGUCAGAUUCUGGUGAAUCUGCGAGUUCUGCUGUAUAUCUC [A5C A18U A20C A65G], the self-cleavage was 0.37.
With UAACCGGGGGCCACAGCGGAAGCGAUCACGUCGCAGCCCCUGUCAGAUUCUGGUGAAACUGCGAAUUCUGCUGUAUAUCUC [A5C A18G U25A U58A] the self-cleavage was 0.37.
With UAACCGGGGGCCACGGCAGAGGCGUUCACGUCGCAGCCCCUGUCAGAUUCCGGUGAGUCUGCGAAUUCUGCUGUGUAUCUC [A5C A15G A21G U51C A57G A75G] the self-cleavage was 0.5.
Work on UAACCGGGGGCCACAGCAGGAGCCUUCACGUCGCAGCCCCUGUCAGAUUCUGGUGGAUCUGCCGAUUCUGCUGUAUAUCUC [A5C A20G G24C A56G G63C A64G] yielded a self-cleavage of 0.1.
Work on UAACCGGGGGCCACAGCAGUAGCGUUCACGUCGCGGCCCCUGUCAGAUUCUGGUGAAUCUGCGAAUUCUGCUGUAUAUCUC [A5C A20U A35G] yielded a self-cleavage of 0.88.
Variant UAACCGGGGGCCACAGCAGGAGCGUUCACGUCGCAGCCCCAGUCAGAUUCUGGUGAAUCUGCGAAUUCUGCUGUACAUCUC [A5C A20G U41A U76C] has a self-cleavage of 0.58.
UAACCGGGGGCCUCAGCAGAAGCGUUCACGACGCAGCCCCCGUCAGAUUCUGGUGAACCUGCGAAUUCUGCUGUAUAUCUC [A5C A13U U31A U41C U58C] gave a self-cleavage of 0.3.
For UAACCGGGGGCCGCAGCAGAAGCGUUCACAUCGCAGCCCCUGUCAGAUUCCGGUGAAUCUGCGAAUUCUGCUGUAUAUCUG [A5C A13G G30A U51C C81G], the self-cleavage was 0.13.
With UAACCGGGGGCCCCAGCAGAAGCGUUCACGUCGCAGCCCCUGUCAGAUUCUGAUGAAUCCGCGAUUUCUGCUGUAUAUCCC [A5C A13C G53A U60C A65U U80C] the self-cleavage was 0.17.
With UAACCGGGGGCCACGGCAGAAGCGUUCACGUCGCAGCCCCUGUCAGAUUCUGGUGAAUCUGCGAAUUCUGCCGUAUAUCUC [A5C A15G U72C] the self-cleavage was 1.04.
In the case of UAACCGGGGGCCACGGCAGAAGCGCUCACGUCGCAGCCCCUGUCAGAUUCUGGUGAAUCUGCGAAUUCUGCUGUAUAUCUC [A5C A15G U25C], the self-cleavage is reported as 0.69.
With UAACCGGGGGCCGCAGCAGAAGCGUUCACGUCGCAGCCCCUGUCAGAUUCUGGUGAAUCUGCGAAUUCUGCUGUAUAUUUC [A5C A13G C79U] the self-cleavage was 1.12.
With UAACCGGGGGCCACAGCUGAAGCGUUCACGUCGCAGCCCCUGUCAGAUUCUGGUGAAUCUGCGAAUCCUGCUGUAUAUCUC [A5C A18U U67C] the self-cleavage was 0.14.
UAACCGGGGGCCACAGCAGGAGCGUUCACGUCGCAGCCCCUGUCGGAUUCUGGUGAAUCUGCGAAUUCUGCUGUAUGUCUC [A5C A20G A45G A77G] showed a self-cleavage of 0.72.
UAAUAGGGGGCCACAGCAGAAGCGUUCACGUCGCAGCCCCCGUCGGAUUCCGGUGACUCUGCGAAUUCUGCAGUGUAUCUC [C4U U41C A45G U51C A57C U72A A75G] showed a self-cleavage of 0.15.
Variant UAAUAGGGGGCCACAGCAGAAGCGUUCACGUCGCAGCCCCUGUCAGAUACCGGUGAAUCUGCGAAUACUGCUGUAUAUCUC [C4U U49A U51C U67A] has a self-cleavage of 0.66.
With UAACCGGGGGCCACAGCAGAGGCGUUCACGUCGCAGCCCCUGUCAGAUUCCGGUGAAUCUGCGAAUUCUGCUGUAUAUCUC [A5C A21G U51C] the self-cleavage was 0.48.
For UAACCGGGGGCCACUGCAGAAGCGUUCACGUCGCAGCCCCUGUCGGAUUCUGGUGUAUCUGCGAAUUCUGCUGUAUAUCUC [A5C A15U A45G A56U], the self-cleavage was 0.19.
UAAUAGGGGGCCACAGCAGAAGCGUUCACGUCGCAGCCCCUGUCAGAUUCAGGUUAAUCUGCGAAUUCUGCUGUAUAUCAC [C4U U51A G55U U80A] gave a self-cleavage of 0.96.
Work on UAACCGGGGGCCACGGCAGGAGCGAUCACGUCGCAGCCCCUGUCAGAUUCUGGCGUAUCUGCGAAUUCUGCUGCAUAUCUC [A5C A15G A20G U25A U54C A56U U74C] yielded a self-cleavage of 0.36.
